Experimental data as given in PubChem BioAssay AID651820 (National Center for Advancing Translational Sciences (NCATS), 2012).
Among all 340,000 compounds or so, about 12,000 (3.5%) were called active. Inconclusive means that the source gave no clear call. Such entries were picked first, then a sample of the others. Calls follow the shape of the dose curve; as a rule, active = well fitted inhibition curve with a large enough effect; inconclusive = small, poorly fitted or top-dose-only effect, or another doubt; inactive = no such curve, though single readings can be large or run the other way. Potencies of inconclusive entries are left out as doubtful fits.

Test: qHTS Assay for Inhibitors of Hepatitis C Virus (HCV)
Conditions: Huh7.5.1 HCVcc-Cre (HCVcc is cell-culture hepatitis C virus) infection, luciferase reporter, 44 h; series mostly up to 41.8 µM
Method in brief: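 Compounds are dispensed onto cells plated 4 h earlier at 1,000 per well, with HCVcc-Cre virus (about 0.5 moi) added next. Following 44 h of culture, luminescent signal is measured for 15 sec after 15 min with substrate at room temperature.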
Potency is read from the fitted curve at half-maximal effect; tags tell the direction and shape of the fitted curve.

Compound	Potency
NNC(=O)c1cn2ccccc2n1	inactive
C/C(=N\NC(=O)c1c(C)nc2ccccn12)c1ccc(C(C)(C)C)cc1	inconclusive [inhibitor, single point]
c1ccc(-c2nc(-n3nc4ccccc4n3)nc3ccccc23)cc1	active: 14.1 µM
O=C(N/N=C/c1ccc(Cl)cc1Cl)c1cccc(F)c1	inconclusive [inhibitor, partial curve]
COc1ccc(-c2ccnc3nc(N4CCOCC4)nn23)cc1	inconclusive [inhibitor, single point]
COc1cc(C(=O)Oc2ccccc2N)cc(OC)c1OC	inconclusive [inhibitor, partial curve, poor fit]
Cc1ccccc1-n1c(SCC(=O)O)nc2sc3c(c2c1=O)CCCC3	inconclusive [inhibitor, single point]
COc1ccccc1C(=O)C1CCCN(C(=O)CCC(=O)c2ccccc2)C1 (centres undefined)	inactive
Cn1c2c(c(=O)n(C)c1=O)C(c1ccccc1OC(F)F)C1=C(CCCC1=O)N2 (centres undefined)	active: 2.82 µM
O=C(Nc1cccc(C(F)(F)F)c1)c1sc(Cl)nc1C(F)(F)F	inconclusive [inhibitor, single point]
CC(C)c1ccc(NC(=O)c2cc3c(=O)n(C)c4ccccc4c3n2C)cc1	inconclusive [inhibitor, single point]
CCOc1ccccc1NC(=O)C1(S(=O)(=O)c2ccc(Cl)cc2)CC1	inconclusive [inhibitor, single point]
COC(=O)c1cc(Cl)c(NC(=O)/C=C/c2ccc(Cl)cc2Cl)cc1OC	inconclusive [inhibitor, full curve, poor fit]
O=C(CSc1ncnc2scc(-c3ccccc3)c12)NCc1ccc2c(c1)OCO2	inconclusive [inhibitor, partial curve]
O=C(Nc1ccc(Br)cc1)c1cc2ccccn2n1	inconclusive [inhibitor, partial curve]
CC(C)(C)c1cc(C(=O)N2CCc3ccccc32)ccn1	inactive
C=CCn1c(Cc2c(C)[nH]c3ccccc23)nnc1SCC(=O)NCc1ccc(F)cc1	inactive
CCOC(=O)c1c(NC(NC(=O)C(C)C)C(Cl)(Cl)Cl)sc2c1CCC2 (centres undefined)	inconclusive [inhibitor, single point]
Cc1c(C(=O)NCCSCc2cccc(C(F)(F)F)c2)cnn1-c1ccc(Cl)cc1	inconclusive [inhibitor, single point]
CN(CC1CCCN(CCc2ccc(Cl)cc2)C1)C(=O)C(=O)c1ccco1 (centres undefined)	inconclusive [inhibitor, single point]
COc1ccc(N2CCN(C(=O)Cn3nnc(-c4ccc(OC)c(OC)c4)n3)CC2)cc1	inconclusive [inhibitor, partial curve, poor fit]
COc1ccc(C2=CC(=O)CC(c3ccc(F)cc3)C2)cc1 (centres undefined)	inconclusive [inhibitor, single point]
COc1ccc(-c2c[n+](CC(=O)c3ccccc3)c3n2CCCCC3)cc1	inconclusive [inhibitor, single point]

Compound	Potency
Cc1nc(-c2ccccc2)nc2[nH]c(C(C)C)cc(=O)c12	inconclusive [inhibitor, single point]
N#Cc1cccc2c1-c1ccccc1/C2=N/NC(N)=O	inconclusive [inhibitor, single point]
O=S(=O)(c1ccc(F)cc1)N1CCN(CCOc2ccccc2)CC1	inconclusive [inhibitor, single point]
O=C(C1=C[C@H](c2ccccc2)C[C@H](OCCCCO)O1)N1CCOCC1	inactive
c1ccc2nc(-c3nc4ccccc4o3)ccc2c1	inactive
CC(C)(C)c1ccc(CN2C3=NCCCN3c3ccccc32)cc1	active: 31.6 µM
COc1ccc(-c2cn[nH]c2-c2ccc(OCc3ccc(F)cc3)cc2O)cc1OC	inconclusive [inhibitor, partial curve]
CCc1nc(SCC(=O)N2CCc3cc(OC)c(OC)cc3C2)c(C#N)cc1C	inconclusive [inhibitor, partial curve, poor fit]
Cn1c(NCc2ccco2)nc2c1c(=O)n(Cc1ccc(Br)cc1)c(=O)n2C	inconclusive [inhibitor, single point]
Cc1ccc2[nH]c(=O)c3cc(C(=O)N(C)c4ccccc4C)sc3c2c1	inconclusive [inhibitor, partial curve, poor fit]
CC(C)(C)OC(=O)NC(CNCc1ccccc1)Cc1ccccc1 (centres undefined)	inconclusive [inhibitor, partial curve]
Cc1ccc(NC(=O)CSc2ncnc3ccccc23)cc1S(=O)(=O)N1CCCCCC1	inconclusive [inhibitor, partial curve]
Cc1ccc(CN(C)C(=O)c2ccc(S(=O)(=O)N(C)c3ccccc3)cc2)o1	inconclusive [inhibitor, partial curve]
O=C(/C=C/c1ccccc1)NCCSCc1ccccc1Cl	inactive
CS(=O)(=O)N1CCCC(C(=O)NCCN2CCC(Cc3ccccc3)CC2)C1 (centres undefined)	inconclusive [inhibitor, partial curve]
CC(=O)Nc1cccc(OCc2cnc(Cl)s2)c1	inactive
c1ccc(-c2nnc(-c3c[nH]c4ccccc34)nc2-c2ccccc2)cc1	inactive
Cc1ccc(NNC(=O)c2cc(C(C)(C)C)nn2Cc2ccccc2)cc1	inconclusive [inhibitor, single point]
COc1ccc(N(CC(=O)N2CCN(c3cc(C)ccc3C)CC2)S(=O)(=O)c2c(C)noc2C)cc1	inconclusive [inhibitor, single point]
CCOC(=O)c1ccc(Nc2nc(C)cc(C)n2)cc1	inactive
O=c1c2ccccc2nc2n1C(CSCc1cccc(C(F)(F)F)c1)CS2 (centres undefined)	active: 10 µM
CC(=O)N1N=C(c2cccc([N+](=O)[O-])c2)OC1c1ccc(Cl)cc1Cl (centres undefined)	active: 10 µM
O=C(C1CC(=O)N(c2ccc(Cl)cc2)C1)N1CCOCC1 (centres undefined)	inactive

Compound	Potency
CC(NC(=O)c1cc2c(=O)n3ccccc3nc2n(CC2CCCO2)c1=N)c1ccccc1 (centres undefined)	active: 2.24 µM
CC[C@H]1c2[nH]c3ccc(C(C)C)cc3c2[C@@H]2CCN3C(=O)CCC[C@H]1[C@H]23	inconclusive [inhibitor, partial curve]
Cn1c(Cc2ccccc2)[n+](C)c2ccccc21	inconclusive [inhibitor, single point]
O=C(CNc1cccc2ccccc12)N/N=C/c1ccc([N+](=O)[O-])o1	active: 10 µM
Cc1cccc(N(Cc2ccccc2)C(=O)c2cccc(S(=O)(=O)N3CC(C)OC(C)C3)c2)c1 (centres undefined)	inconclusive [inhibitor, single point]
Cc1ccc(NC2=CC(=O)C(=O)c3ccccc32)c(C)c1	inconclusive [inhibitor, single point]
c1ccc(Nc2scc(-c3ccccc3)[n+]2Cc2ccco2)cc1	inconclusive [inhibitor, single point]
Cc1cccc(-n2nc([N+](=O)[O-])c(=NCc3cccnc3)n2O)c1	inconclusive [inhibitor, single point]
C[C@@H]1CCC[C@H](C)N1Cc1nc(Cc2ccccc2Cl)no1	inactive
COc1cccc(CN2CCN(Cc3nc4c(s3)CCCC4)CC2CCO)c1 (centres undefined)	inconclusive [inhibitor, single point]
COc1cccc(/C=N/NC(=O)COc2cccc3cccnc23)c1O	inconclusive [inhibitor, single point]
O=C(NCCc1c[nH]c2ccccc12)/C(=C\c1cccnc1)NC(=O)c1cccs1	inactive
S=C1NC[C@H](Cc2cccc3ccccc23)N1CC1CCCCC1	active: 2.82 µM
Cc1sc(NC(=O)CN(Cc2ccccc2)C(=O)C(C)C)c(C(N)=O)c1C	inconclusive [inhibitor, single point]
CCOc1ccc(NC(=O)C(=O)N/N=C\c2ccc(CNS(=O)(=O)c3ccccc3)o2)cc1	inconclusive [inhibitor, partial curve]
COc1ccc(NC(=O)CCOc2ccc(C)cc2)cc1S(=O)(=O)N1CCCCC1	inconclusive [inhibitor, partial curve]
O=C(O)CCCC(=O)N1N=C(c2ccccc2)CC1c1cccs1 (centres undefined)	inactive
C=C1CC(COc2cc(=O)oc3ccccc23)(c2ccccc2)OC1=O (centres undefined)	inconclusive [inhibitor, single point]
O=C(Nc1ccc(O)cc1)c1c(O)c2c([nH]c1=O)CCCC2	inconclusive [inhibitor, single point]
CCOC(=O)N1CCN(C(=O)CN2C(=O)CC(C)(C)S(=O)(=O)c3ccccc32)CC1	inactive
O=C(Nc1cccc(Cl)c1)C1COc2ccccc2O1 (centres undefined)	inactive
CCOC(=O)C1=C(COC(=O)c2ccc(Cl)c(S(=O)(=O)N3CCOCC3)c2)NC(=O)NC1C (centres undefined)	inconclusive [inhibitor, partial curve]
CCc1cccc(C)c1NC(=O)COC(=O)c1c2c(nc3ccccc13)/C(=C\c1cccs1)CCC2	active: 1.12 µM
